# Measured values published in the supplement of paper PMC3334620.
# In all, about 33,000 sequences were measured (“E-score (-0.5 to 0.5)”: median about -0.012, highest 2% from about 0.27 on). Some of the results follow.
# Molecular target: T1, Vhr1 (UniProt P40522)
# T1 sequence: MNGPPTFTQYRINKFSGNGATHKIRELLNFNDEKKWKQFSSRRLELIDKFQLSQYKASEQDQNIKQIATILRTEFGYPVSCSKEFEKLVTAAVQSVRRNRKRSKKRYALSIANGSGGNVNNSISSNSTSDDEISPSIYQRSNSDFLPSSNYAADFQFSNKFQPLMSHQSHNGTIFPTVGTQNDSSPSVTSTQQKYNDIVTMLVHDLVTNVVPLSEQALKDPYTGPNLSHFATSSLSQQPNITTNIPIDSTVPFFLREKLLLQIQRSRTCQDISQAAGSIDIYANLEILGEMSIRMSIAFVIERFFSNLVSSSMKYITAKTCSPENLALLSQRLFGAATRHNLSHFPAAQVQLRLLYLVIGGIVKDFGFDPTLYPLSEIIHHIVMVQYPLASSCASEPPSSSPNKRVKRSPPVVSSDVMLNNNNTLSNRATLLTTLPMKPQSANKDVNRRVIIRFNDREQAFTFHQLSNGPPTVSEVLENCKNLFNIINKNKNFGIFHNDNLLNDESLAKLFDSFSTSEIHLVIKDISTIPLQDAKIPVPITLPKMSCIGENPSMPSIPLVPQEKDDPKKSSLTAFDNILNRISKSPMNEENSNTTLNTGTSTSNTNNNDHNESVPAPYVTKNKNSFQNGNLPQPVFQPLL
# Assay: PBM E-score (8-mer binding enrichment) (E-score (-0.5 to 0.5)); higher = stronger / more preferred TF binding; most listed sequences are background and not binding sites
# Settings: protein concentration: 200 nM; construct: GST-full length
# Outline: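 Yeast transcription factors carrying a GST tag, as full-length proteins or DNA-binding domains, were produced by PURExpress in vitro transcription/translation. About 100-200 nM protein was applied to universal all-10-mer Agilent arrays, double-stranded by primer extension on fresh or once-stripped slides. Bound protein was detected with fluorescent anti-GST, and scans were normalised with masliner. The Universal PBM Analysis Suite gave each ungapped eight-base word, pooled with its reverse complement, an E-score, a modified Wilcoxon-Mann-Whitney statistic.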
row,Sequence,PBM E-score
1,ACTATACG,0.132
2,ACTGTTCA,-0.0449
3,TCGCTAAA,-0.13
4,CACTCACA,0.264
5,AGGTCCAT,-0.0892
6,AGGCCGCA,-0.279
7,ATTATATA,0.0804
8,CCGACACA,0.208
9,CGATATCA,0.0702
10,CACCGTCC,0.091
11,AATCGCCG,-0.0215
12,GCCGGTGA,0.123
13,AGATAAAA,0.0186
14,AATTTCGT,-0.155
15,CGCTTGAG,-0.144
16,AAGCGACA,0.136
17,AAGGTAGT,0.107
18,AACGCAGC,-0.17
19,AGTAACGA,0.00277
20,GACACATA,0.197
21,AGGAACTC,-0.0636
22,AAACAGCC,-0.0663

row,Sequence,PBM E-score
1,GCTACGAA,-0.13
2,ATGATTGG,0.178
3,ACTCATCC,0.412
4,GACCCACC,0.224
5,GATACCCA,0.127
6,AACGCTCC,-0.141
7,CAATCTGG,0.0697
8,TAGATCAA,0.0192
9,CACATTAA,0.126
10,AAAGTGAT,0.1
11,AAAGCGTA,-0.183
12,GCACGATA,-0.00878
13,ACTAAAGC,0.022
14,AGCCTGAC,-0.0744
15,GCATGTAA,-0.17
16,ATCAGGCA,0.183
17,ACCTCTCT,-0.0884
18,ACCATCCA,0.126
19,CCATCAAG,-0.0361
20,GGACTCCA,0.13
21,AGAAAACG,-0.152
22,CCCCATGA,0.0682

row,Sequence,PBM E-score
1,CATACCTC,0.121
2,CCTGGGCA,-0.187
3,ATTAAGCG,0.0451
4,ACGTCTAT,0.0276
5,CGTCCGGA,-0.028
6,CACGTATA,0.0807
7,AGCGTTCA,-0.25
8,GGCAAACC,-0.0751
9,TAACCTCA,-0.0789
10,AGCTATGA,0.176
11,AAATCTGA,0.179
12,CATCGGAC,-0.0193
13,GCGGTGAA,-0.00362
14,CCATGAAA,-0.12
15,CTAGCCAC,-0.146
16,GCGTTGTA,0.0233
17,CCGGAGAC,0.155
18,ACTAGTAT,0.265
19,CAGAGGAC,-0.0753
20,ATAGAACC,0.0175
21,ACAGACCA,0.207
22,ACGGATCT,-0.0165

row,Sequence,PBM E-score
1,GTATTCGA,-0.024
2,GTGGGCGA,0.0418
3,GGAACTCA,-0.0114
4,TCATGGAA,0.179
5,AGTAGCAC,0.0694
6,CTGACCGC,0.0872
7,AAGGATAG,0.0266
8,TCATAGGA,0.116
9,ACATGGGT,0.0861
10,ACAAGGGT,-0.161
11,CGCGGATA,0.218
12,GGTAGTCA,0.427
13,ATCACCAG,0.111
14,ACTGAAAA,-0.241
15,CTTCTCTC,-0.0394
16,CTTAGCTA,-0.0821
17,ACGCCTCG,-0.132
18,AGCTACGC,-0.121
19,TAAAGAAA,-0.268
20,ACGTTAGG,-0.1
